# Measured values taken from the supplement of paper PMC3656093.
# ± gives the standard deviation of the averaged measurements. The full ranking holds about 1,900 compounds; the median of “CD40L-induced NF-kB luciferase activity, plate-corrected, relative to DMSO (0) and IKK inhibitor VII (-100) controls” is about 0.032, and the lowest 2% start at about -26. Some of the results follow.
# System: BL2-NFkB-Luc
# Assay: CD40L-induced NF-kB luciferase activity, plate-corrected, relative to DMSO (0) and IKK inhibitor VII (-100) controls (% normalized activity); higher = more NF-kB reporter activity (less inhibition)
# Conditions: 9.4 µM; stimulus: tCD40L 64 ng/ml; 4.5 h
# Description: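 BL2 B cells with a stable NF-kB response-element luciferase reporter (BL2-NFkB-Luc), 384-well. Cells were pre-incubated with compound at 9.4 uM for 1 h at 37 C, then stimulated with 64 ng/ml trimerized CD40L for 4.5 h; luciferase was read with Steady-Glo. Signal was normalised per plate in Genedata (median DMSO neutral control = 0, median IKK inhibitor VII at 50 uM = -100) with Assay Median plate-pattern correction; duplicate plates.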
row,Compound,CD40L-induced NF-kB luciferase activity
1,CC1(C)CC(c2csc(N)n2)CCO1 (configuration not stated),-0.219 ± 0.6
2,COc1ccc2c(c1)C(=O)CC(c1ccccc1F)O2 (configuration not stated),30.1 ± 12
3,COCCOC(=O)C1=C(C)NC(C)=C(C(=O)OC(C)C)C1c1cccc([N+](=O)[O-])c1 (configuration not stated),-8.16 ± 8.3
4,CN1C(C(=O)Nc2ccccn2)C(=O)c2ccccc2S1(=O)=O (configuration not stated),-3.11 ± 3.9
5,O=C(NC(=S)Nc1nc(-c2ccccc2)cs1)c1ccco1,1.81 ± 1.9
6,O=C(CCCN1CCC(O)(c2ccc(Cl)cc2)CC1)c1ccc(F)cc1,-2.45 ± 1.3
7,Cc1ccc(C)c(OCCCC(C)(C)C(=O)O)c1,-0.784 ± 0.67
8,Cc1ccccc1C(=O)NCC(=O)O,1.5 ± 2.1
9,COc1ccc2[nH]c(C)c(CN3CCC(C)CC3)c(=O)c2c1,-0.734 ± 4.2
10,c1ccc(SSc2ccccc2)cc1,-4.25 ± 8.9
11,Cc1nnc(SCC2=C(C(=O)O)N3C(=O)[C@@H](NC(=O)Cn4cnnn4)[C@H]3SC2)s1,3.21 ± 5.4
12,CC(C)C(=O)Nc1ccc2c3c(cccc13)CC2,0.449 ± 2.2
13,O=c1[nH]c(=O)n([C@H]2C[C@H](O)[C@@H](CO)O2)cc1C(F)(F)F,1.36 ± 3.4
14,COc1cc2c(cc1OC)C1(CCCCC1)CN(C)C2,-4.22 ± 0.72
15,COc1ccc2oc(=O)c(-c3nc(C)cs3)cc2c1,82.6 ± 9.2
16,O=c1cc(CN2CCN(c3cccc(Cl)c3)CC2)c2cc(O)c(-c3ccccc3)cc2o1,1.2 ± 10
17,CCCC(=O)O[C@]1(C(=O)CO)CC[C@H]2[C@@H]3CCC4=CC(=O)CC[C@]4(C)[C@H]3[C@@H](O)C[C@@]21C,-31.6 ± 7.7
18,O=CNC1CCCc2c1[nH]c1ccc(Cl)cc21 (configuration not stated),-1.77 ± 0.63
19,Cc1ccccc1OCCSc1nc2ncnc(N)c2[nH]1,-2.76 ± 6

row,Compound,CD40L-induced NF-kB luciferase activity
1,COc1ccc2cc(C3(C)NC(=O)NC3=O)ccc2c1 (configuration not stated),0.164 ± 0.37
2,Clc1ccc2c(c1)[C@H]1OCC[C@H]1[C@@H](c1ccco1)N2,33.8 ± 0.96
3,CC12CCC(C(=O)N3CCc4ccccc43)(CC1=O)C2(C)C (configuration not stated),-7.25 ± 2.2
4,NC(=O)N1c2ccccc2CC(=O)c2ccccc21,0.783 ± 0.77
5,CCOC(=O)c1ccc(NC(=S)NCCc2ccccc2F)cc1,-7.23 ± 1.8
6,CCOC(=O)c1ccc(N2C(=O)C(CC(=O)NC)N(CCc3ccc(OC)c(OC)c3)C2=S)cc1 (configuration not stated),2.55 ± 3.1
7,COc1ccc(C2=CC(=O)C=CC2=O)cc1,-5.93 ± 5.3
8,O=C(c1ccco1)N1CCCN(Cc2nc(-c3ccc4c(c3)OCO4)no2)CC1,2.92 ± 0.25
9,CC(C)c1ccc(OCc2ccc(C(=O)O)o2)cc1,-32.6 ± 4.2
10,O=C(O)c1cc(-c2ccc3c(c2)OCO3)nc2ccc(Br)cc12,9.08 ± 4
11,COc1cc(NS(=O)(=O)c2ccc(N)cc2)nc(OC)n1,-4.2 ± 6.9
12,COc1cc(C=NCC2OCCc3ccccc32)cc(OC)c1 (configuration not stated),-1.7 ± 1.9
13,C[C@]12CC[C@H]3[C@@H](CCC4=CC(=O)CC[C@@]43C)[C@@H]1CC[C@@H]2C(=O)CO,-4.85 ± 1.2
14,O=Cc1ccc(N2CCCCC2)cc1,1.07 ± 7.8
15,COc1ccc2c(c1)C=CC1(O2)N(CCO)c2ccccc2C1(C)C (configuration not stated),-18.1 ± 0.26
16,CC12COC3(C(=O)Nc4ccc(F)cc4)CC1CCC32C (configuration not stated),-5.78 ± 3.7
17,CC(C)Cc1ccc(C(C)C(=O)Nc2ccc(O)cc2)cc1 (configuration not stated),-6.17 ± 0.94
18,CC(C)OC(=O)CC1C(=O)NCCN1C(=S)NC(=O)c1ccccc1Cl (configuration not stated),2.03 ± 2.2
19,CC(=O)NCCCCCCNC(C)=O,0.434 ± 5.7

row,Compound,CD40L-induced NF-kB luciferase activity
1,Cc1oc2cc(O)ccc2c(=O)c1Oc1ccccc1Br,1.5 ± 1.3
2,O=C(CC(C(=O)O)c1c[nH]c2ccccc12)c1ccccc1 (configuration not stated),11.7 ± 0.38
3,CC(=O)N(C(C)=O)c1nc2nc(C)cc(C)n2n1,6.34 ± 1.5
4,COc1cc2cc(C(=O)O)[nH]c2c(OC)c1OC,1.43 ± 0.11
5,Cc1nc(C)c(C)nc1C,0.583 ± 3.1
6,Cc1ccc(C=NNC(=O)C2(C)CC2(Br)Br)cc1 (configuration not stated),3.28 ± 7
7,Nc1nnc(CSCc2ccc(Cl)cc2Cl)s1,11.4 ± 2.5
8,O=C(/C=C/c1ccc2c(c1)OCCCO2)c1ccc2ccccc2c1O,44.2 ± 0.67
9,C=CCOC(=O)C1=C(C)NC(=O)NC1/C=C/c1ccccc1OC (configuration not stated),-0.888 ± 0.046
10,CC(=O)O[C@]1(C(C)=O)CC[C@H]2[C@@H]3C=C(C)C4=CC(=O)CC[C@]4(C)[C@H]3CC[C@@]21C,-4.48 ± 6.2
11,CC(=O)/C=C/c1ccc(C)o1,1.5 ± 2.1
12,COc1ccc2c(c1)c(=O)oc1cc3occ(C(C)(C)C)c3cc12,-6.35 ± 7.7
13,COc1ccccc1CCn1cnc2c3cc(C)ccc3n(C)c2c1=O,0.526 ± 4.1
14,Nc1nnc(-c2cccc(Cl)c2Cl)c(N)n1,0.794 ± 0.59
15,CC1CCCC(C)N1NC(=O)c1ccc(Cl)c(S(N)(=O)=O)c1 (configuration not stated),4.34 ± 1.3
16,CC1(C)Cc2ccccc2-c2n[nH]c(=S)n21,-9.23 ± 2.8
17,OCC1CCN(Cc2cn(Cc3ccccc3)nc2-c2cc3ccccc3o2)CC1,-4.25 ± 3.1
18,C(=C/c1nccc2c1[nH]c1ccccc12)/c1ccc2c(c1)OCO2,41 ± 3.5
19,COc1ccc(C2=NOC(COc3ccc4c(C)cc(=O)oc4c3)C2)c(OC)c1 (configuration not stated),-9.39 ± 1.8
